{"source": "PubChem BioAssay AID886", "about": "(National Center for Advancing Translational Sciences (NCATS), 2007)", "note": "Several values for one entry are separate records, joined by “and”; a condition that tells them apart may be missing. Equal entries are not always repeated. Hit rate of the full screen: of about 73,000 compounds, about 2,500 (3.4%) were called active. The shares of active, inactive and inconclusive entries below differ from those in the screen. The call rests on the fitted dose curve; in most records, active means well fitted inhibition curve with a large enough effect; inconclusive means small, poorly fitted or top-dose-only effect; inactive means no such curve, though single readings can be large or run the other way. A potency beside an inconclusive call is a rough fit, not a confirmed value. On the % scale 0 is the no-effect control and ±100 the full control effect; potency means the concentration at half of the fitted maximal effect; tags describe the fitted curve by direction and shape."}
{"target": "3-hydroxyacyl-CoA dehydrogenase type-2 (Homo sapiens) (UniProt Q99714)", "assay": "qHTS Assay for Inhibitors of HADH2 (Hydroxyacyl-Coenzyme A Dehydrogenase, Type II); further: nearly all actives have a fitted effect of over 60% in size", "conditions": "recombinant HADH2, NADH fluorescence, beta-hydroxybutyryl-CoA; activity change, negative = inhibition: at 57.1 µM (top of the series)", "how_it_was_run": "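His-tagged recombinant enzyme from E. coli, 20 nM, preincubated 15 min RT with compound; reaction started with 1 mM NAD+ and 90 uM beta-hydroxybutyryl-CoA in 100 mM Tris-HCl pH 9.0. NADH fluorescence (ex 360/em 450) read over 4 min; last-minus-first difference.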"}
{"smiles": "Cc1ccc(C(=O)N(CN2CCCC2=O)c2ccc(F)cc2)cc1", "Potency": "inconclusive: 31.6 µM [inhibitor, single point]"}
{"smiles": "CCc1c(C)c2ccc(OCC(=O)N(C)C)c(C)c2oc1=O", "Potency": "active: 25.1 µM"}
{"smiles": "Cn1c(NCCO)nc2c(c1=O)C1(CCCCC1)Cc1ccccc1-2", "Potency": "active: 31.6 µM"}
{"smiles": "N#Cc1c(-c2ccc3c(c2)OCO3)csc1N", "Potency": "inconclusive: 31.6 µM [inhibitor, single point]"}
{"smiles": "COc1ccc(OC)c(C2C3=C(N=C4SCC(=O)N42)c2ccccc2CC3)c1", "note": "(stereo unspecified)", "Potency": "inconclusive: 7.94 µM [inhibitor, partial curve]"}
{"smiles": "NC(=O)c1ccccc1NS(=O)(=O)Cc1ccccc1", "Potency": "active: 10 µM"}
{"smiles": "Cc1ccc(C2=Nc3ccccc3S[C@@H](c3cccc([N+](=O)[O-])c3)C2)cc1", "Potency": "inconclusive: 0.794 µM [inhibitor, full curve]"}
{"smiles": "COc1c2c(c3c(c1CCC(=O)O)OC(C)(C)C=C3)OC(C)(C)C=C2", "activity change, negative = inhibition": "inactive: 7.58% [at 11.4 µM]"}
{"smiles": "COc1ccc2[nH]cc(CCNc3cc(-c4ccoc4)ncn3)c2c1", "Potency": "inconclusive: 25.1 µM [inhibitor, partial curve]"}
{"smiles": "C=Cn1c(N2CCOCC2)nc2c1c(=O)[nH]c(=O)n2C", "activity change, negative = inhibition": "inactive: -7.83%"}
{"smiles": "N#Cc1nc(-c2ccc(OCc3ccccc3)cc2)oc1N1CCC(C(N)=O)CC1", "Potency": "inconclusive: 31.6 µM [inhibitor, single point]"}
{"smiles": "O=C(Nc1ccc(C(=O)Nc2ccc(C(=O)Nc3ccc(S(=O)(=O)O)c4cc(S(=O)(=O)O)cc(S(=O)(=O)O)c34)cc2)cc1)Nc1ccc(C(=O)Nc2ccc(C(=O)Nc3ccc(S(=O)(=O)O)c4cc(S(=O)(=O)O)cc(S(=O)(=O)O)c34)cc2)cc1", "Potency": "inconclusive: 3.16 µM [inhibitor, full curve, poor fit]"}
{"smiles": "CC1=Nn2c(nnc2-c2ccccc2)SC1", "Potency": "inconclusive: 39.8 µM [inhibitor, single point]"}
{"smiles": "Oc1cc2c(c(Cl)c1O)CCNC[C@H]2c1ccccc1", "Potency": "active: 794 nM and active: 39.8 nM"}
{"smiles": "O=C(CSc1nc2nc(-c3cccs3)cc(C(F)(F)F)c2c(=O)[nH]1)NCc1ccco1", "Potency": "active: 25.1 µM"}
{"smiles": "CC(C)c1ccc(O)c(O)c(=O)c1", "note": "(tested in a mixture with another compound)", "activity change, negative = inhibition": "inactive: -12.9% [at 11.4 µM]"}
{"smiles": "CCOc1ccc(C2C3=C(CCCC3=O)Nc3nc(C(F)(F)F)nn32)cc1OC", "note": "(stereo unspecified)", "Potency": "inconclusive: 25.1 µM [inhibitor, partial curve]"}
{"smiles": "Cc1cc(-c2nc3c4c5c(sc4[nH]c(=O)n3n2)CCC5)c(C)o1", "Potency": "active: 25.1 µM"}
{"smiles": "Nc1ccc(N=Nc2c(S(=O)(=O)O)cc3ccccc3c2S(=O)(=O)O)cc1", "activity change, negative = inhibition": "inactive: 14.1% [at 11.4 µM]"}
{"smiles": "COC(=O)c1cc2c(cc1Cl)SC(=NCCCN1CCOCC1)NS2(=O)=O", "Potency": "inconclusive: 31.6 µM [inhibitor, single point]"}
{"smiles": "O=C(O)C1CCCN1S(=O)(=O)c1ccc2[nH]c(=O)c(=O)[nH]c2c1", "note": "(stereo unspecified)", "Potency": "inconclusive: 39.8 µM [inhibitor, single point]"}
{"smiles": "COc1ccc2oc(-c3ccccc3)c(OC)c(=O)c2c1", "Potency": "inconclusive: 39.8 µM [inhibitor, single point]"}
{"smiles": "OCCN1CCN(C(c2cccs2)c2ccc3cccnc3c2O)CC1", "note": "(stereo unspecified)", "Potency": "active: 3.16 µM"}
{"smiles": "COc1ccccc1CN1CCCC2(CCN(C(=O)c3c(C)noc3C)CC2)C1", "activity change, negative = inhibition": "inactive: 10.9%"}
{"smiles": "COc1ccc(N2CCN(Cc3nc(N)nc(Nc4ccc(C)c(Cl)c4)n3)CC2)cc1", "activity change, negative = inhibition": "inactive: 4.18%"}
{"smiles": "Cc1c(Br)cc(C(=O)NCc2ccco2)c(C)c1C", "Potency": "inconclusive: 31.6 µM [inhibitor, single point]"}
{"smiles": "Cc1ccc(Nc2nc(CSc3nnnn3C)cs2)cc1", "Potency": "inconclusive: 31.6 µM [inhibitor, single point]"}
{"smiles": "CCN(CCCNC(=O)C1CCC(=O)N1Cc1ccc(C)cc1)c1cccc(C)c1", "note": "(stereo unspecified)", "activity change, negative = inhibition": "inactive: -8%"}
{"smiles": "O=C(NCc1ccco1)c1ccc2c(=O)n(CCC3=CCCCC3)c(=O)[nH]c2c1", "activity change, negative = inhibition": "inactive: -21.2%"}
{"smiles": "COc1cc2c(=O)n(CCCN3CCOCC3)c(=S)[nH]c2c(OC)c1OC", "Potency": "active: 31.6 µM"}
{"smiles": "O=S(=O)(Nn1cnnc1)c1ccccc1Cl", "Potency": "inconclusive: 0.0316 µM [inhibitor, partial curve, poor fit]"}
{"smiles": "CCOC(=O)c1c(C)oc2c1c(C(c1ccncc1)N1CCOCC1)c(O)c1ccccc12", "note": "(stereo unspecified)", "Potency": "inconclusive: 15.8 µM [inhibitor, partial curve]"}
{"smiles": "Nc1ccccc1N", "activity change, negative = inhibition": "inactive: 1.07%"}
{"smiles": "Cc1c(NC(=O)c2cc3nc(-c4ccccc4)cc(C)n3n2)c(=O)n(-c2ccccc2)n1C", "Potency": "inconclusive: 39.8 µM [inhibitor, single point]"}
{"smiles": "COC(=O)C1=C(C)N=c2s/c(=C/c3ccoc3)c(=O)n2C1c1ccccc1", "note": "(stereo unspecified)", "Potency": "active: 3.16 µM"}
{"smiles": "CCC(C)NC(=O)CSC1=Nc2ccccc2C2=NC(CC(=O)NCc3ccccc3)C(=O)N12", "note": "(stereo unspecified)", "Potency": "active: 25.1 µM"}
{"smiles": "Cc1cc(N2CCCCC2)n2nc(C)c(-c3ccccc3)c2n1", "Potency": "inconclusive: 39.8 µM [inhibitor, single point]"}
{"smiles": "NC(=O)c1ccsc1NC(=O)COC(=O)c1ccccc1NCc1ccco1", "Potency": "inconclusive: 31.6 µM [inhibitor, single point]"}
{"smiles": "O=C(O)Cc1ccc(O)c(O)c1", "Potency": "active: 0.501 µM"}
{"smiles": "CC(C)c1ccc(OCc2nc(-c3ccccn3)no2)c(Br)c1", "activity change, negative = inhibition": "inactive: 13.3%"}
{"smiles": "COC(=O)[C@@]1(Cc2ccc(F)cc2)[C@H]2c3cc(C(=O)N4CCCC4)n(Cc4ccc(OC(F)(F)F)cc4)c3C[C@H]2CN1C(=O)c1ccccc1", "activity change, negative = inhibition": "inactive: 19.7%"}
{"smiles": "S=C([S-])NCCNC(=S)[S-].[Zn+2]", "Potency": "active: 3.98 µM"}
{"smiles": "c1ccc(-c2cc3c(-n4cccc4)ncnc3o2)cc1", "Potency": "active: 25.1 µM"}
{"smiles": "Cc1ccn2c(-c3csc(NCc4ccco4)n3)c(C)nc2c1", "Potency": "inconclusive: 3.98 µM [inhibitor, single point]"}
{"smiles": "O=C(CCc1nc2ccccc2s1)N1CCN(S(=O)(=O)c2cccs2)CC1", "Potency": "inconclusive: 31.6 µM [inhibitor, single point]"}
{"smiles": "N=C1[C@@H](O)[C@]2(I)c3ccccc3N3C(=N)[C@H](O)[C@@H]4c5ccccc5N1[C@@H]4[C@@H]32", "Potency": "inconclusive: 3.16 µM [inhibitor, single point]"}
